{"source": "paper PMC4336329", "about": "(PLoS ONE, 2015)", "note": "About 2,200 (0.71%) of roughly 310,000 compounds showed an effect of 50% or more. The effect is printed as a negative number. Some of the results follow."}
{"target": "human ether-à-go-go-related gene (hERG) potassium channel (human, UniProt Q12809)", "sequence (Q12809 whole entry, looked up)": "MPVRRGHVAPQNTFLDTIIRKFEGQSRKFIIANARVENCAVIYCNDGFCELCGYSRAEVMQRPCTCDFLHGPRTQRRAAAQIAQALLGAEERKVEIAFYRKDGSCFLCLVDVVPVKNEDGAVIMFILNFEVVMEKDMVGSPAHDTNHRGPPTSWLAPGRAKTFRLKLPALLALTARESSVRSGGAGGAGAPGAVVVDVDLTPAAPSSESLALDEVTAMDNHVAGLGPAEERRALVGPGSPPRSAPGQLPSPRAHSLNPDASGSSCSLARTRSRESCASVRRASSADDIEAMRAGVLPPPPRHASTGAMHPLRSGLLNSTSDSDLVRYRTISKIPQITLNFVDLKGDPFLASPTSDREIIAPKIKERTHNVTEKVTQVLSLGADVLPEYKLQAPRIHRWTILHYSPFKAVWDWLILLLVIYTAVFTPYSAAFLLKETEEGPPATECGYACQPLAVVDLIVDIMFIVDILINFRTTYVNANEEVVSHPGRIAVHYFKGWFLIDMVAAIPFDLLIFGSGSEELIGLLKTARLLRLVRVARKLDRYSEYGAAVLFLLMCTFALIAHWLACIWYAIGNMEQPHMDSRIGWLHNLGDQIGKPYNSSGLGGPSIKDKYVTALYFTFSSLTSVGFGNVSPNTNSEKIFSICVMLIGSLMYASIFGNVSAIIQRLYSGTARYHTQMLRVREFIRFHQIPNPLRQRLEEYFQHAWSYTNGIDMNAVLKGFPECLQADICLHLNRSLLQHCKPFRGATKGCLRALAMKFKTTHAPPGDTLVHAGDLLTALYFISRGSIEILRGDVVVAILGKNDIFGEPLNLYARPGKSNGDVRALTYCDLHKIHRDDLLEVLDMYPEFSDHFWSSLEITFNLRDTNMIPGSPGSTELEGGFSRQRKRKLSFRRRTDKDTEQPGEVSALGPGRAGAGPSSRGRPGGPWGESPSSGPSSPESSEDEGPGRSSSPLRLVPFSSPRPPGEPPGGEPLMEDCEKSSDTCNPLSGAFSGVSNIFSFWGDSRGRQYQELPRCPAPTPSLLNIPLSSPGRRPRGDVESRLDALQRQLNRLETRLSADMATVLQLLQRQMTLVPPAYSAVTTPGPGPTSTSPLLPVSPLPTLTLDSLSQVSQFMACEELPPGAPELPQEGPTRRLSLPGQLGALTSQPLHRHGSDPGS", "test": "primary screen, population patch clamp on CHO cells stably expressing hERG", "units": {"hERG current change (%, negative = inhibition) at 1uM": "%"}}
{"smiles": "CN1CCC(OC(=O)c2cccc(F)c2)CC1.Cl", "hERG current change (%, negative = inhibition) at 1uM": 12.9}
{"smiles": "COc1ccccc1C(=O)NCCN1CCN(C(=O)c2ccccc2OC)CC1", "hERG current change (%, negative = inhibition) at 1uM": 4.56}
{"smiles": "CC(=O)c1ccc(S(=O)(=O)Nc2ccc(-n3cnnn3)cc2)cc1", "hERG current change (%, negative = inhibition) at 1uM": 9.2}
{"smiles": "COc1ccc(N(C(=O)CNS(=O)(=O)c2ccccc2)C(C(=O)NCc2ccco2)C(C)C)cc1", "note": "(centres unmarked)", "hERG current change (%, negative = inhibition) at 1uM": 9.05}
{"smiles": "CCN(CC)CCNC(=O)c1ccc(NC(=O)c2c(F)cccc2Cl)cc1", "hERG current change (%, negative = inhibition) at 1uM": -1.41}
{"smiles": "O=C(CCCC(=O)N(CC(=O)NC1CCCC1)Cc1ccccc1Cl)Nc1ccccn1", "hERG current change (%, negative = inhibition) at 1uM": 1.83}
{"smiles": "Cc1cc(Nc2ccccc2)n(-c2ccccc2)n1", "hERG current change (%, negative = inhibition) at 1uM": 0.831}
{"smiles": "CCN(CC)CCCC(C)NC1=NCCCCC1", "note": "(centres unmarked)", "hERG current change (%, negative = inhibition) at 1uM": 10.3}
{"smiles": "CCOC(=O)Cc1csc(SCC(=O)Nc2oc(C)c3c(C)n[nH]c(=O)c23)n1", "hERG current change (%, negative = inhibition) at 1uM": -5.5}
{"smiles": "CC(C)C(NC(=O)c1c(F)cccc1F)C(=O)N1CCN(S(=O)(=O)c2ccc(F)cc2)CC1", "note": "(centres unmarked)", "hERG current change (%, negative = inhibition) at 1uM": 1.77}
{"smiles": "CCOC(=O)c1c(S(=O)(=O)N2CCN(Cc3ccccc3)CC2)c(C)n(C)c1C", "hERG current change (%, negative = inhibition) at 1uM": 3.83}
{"smiles": "NC(=O)C1(N2CCCCC2)CCN(C(=S)Nc2cccc(Cl)c2)CC1", "hERG current change (%, negative = inhibition) at 1uM": 14.5}
{"smiles": "COc1ccc2c(Cn3cnc4cc([N+](=O)[O-])ccc4c3=O)cc(=O)oc2c1", "hERG current change (%, negative = inhibition) at 1uM": 3.34}
{"smiles": "CCOC(=O)C1CCCN(CC(=O)Nc2c(C(=O)OC)[nH]c3ccc(Br)cc23)C1", "note": "(centres unmarked)", "hERG current change (%, negative = inhibition) at 1uM": -3.53}
{"smiles": "Cc1cc(C(=O)OCC(=O)NC(C)(C)C)c2ccccc2n1", "hERG current change (%, negative = inhibition) at 1uM": 12.9}
{"smiles": "O=C(COC(=O)c1ccc2c(c1)OCCO2)Nc1cc(Cl)ccc1Cl", "hERG current change (%, negative = inhibition) at 1uM": 12}
{"smiles": "FC(F)(F)c1cccc(Cc2noc(CN3C[C@@H]4CCC[C@H]3C4)n2)c1", "hERG current change (%, negative = inhibition) at 1uM": 6.94}
{"smiles": "CCOc1ccc(/C=N/OC(C)C(=O)NCc2ccc3c(c2)OCO3)cc1", "note": "(centres unmarked)", "hERG current change (%, negative = inhibition) at 1uM": 7.76}
{"smiles": "Cc1cc(C)c(-c2cc(NC(=O)CSc3nncn3C)n(-c3ccccc3)n2)cc1C", "hERG current change (%, negative = inhibition) at 1uM": -2.25}
{"smiles": "CCCN(Cc1nnc(-c2ccccc2Cl)o1)C(=O)c1ccc(C)c(S(=O)(=O)N2CCOCC2)c1", "hERG current change (%, negative = inhibition) at 1uM": -21.9}
{"smiles": "CCC1=Nc2cc(C(=O)NCCN3CCOCC3)ccc2Sc2ccccc21", "hERG current change (%, negative = inhibition) at 1uM": 5.95}
{"smiles": "CCOC(=O)N1CCN(Cc2ccc3c(c2)OCO3)CC1", "hERG current change (%, negative = inhibition) at 1uM": 12.9}
{"smiles": "COc1ccc(S(=O)(=O)N(C)CC(=O)N2CCCCCC2)cc1OC", "hERG current change (%, negative = inhibition) at 1uM": 9.68}
{"smiles": "CCC(Sc1nc(C)cc(=O)[nH]1)C(=O)Nc1sc2c(c1C#N)CCCC2", "note": "(centres unmarked)", "hERG current change (%, negative = inhibition) at 1uM": -0.53}
{"smiles": "O=C(COC(=O)Cc1ccsc1)Nc1ccc(Br)cc1F", "hERG current change (%, negative = inhibition) at 1uM": 15.9}
{"smiles": "COc1ccc(C2OC(=O)c3ccccc3S2)cc1", "note": "(centres unmarked)", "hERG current change (%, negative = inhibition) at 1uM": 12.7}
{"smiles": "O=c1[nH]c(CSc2nnc(NCCCN3CCOCC3)s2)nc2cc(Cl)ccc12", "hERG current change (%, negative = inhibition) at 1uM": 4.13}
{"smiles": "Cc1cccc(N2C(N)=C(C#N)C(C#N)(C#N)C2c2ccccc2)c1", "note": "(centres unmarked)", "hERG current change (%, negative = inhibition) at 1uM": 4.47}
{"smiles": "CCCCOc1ccc(C(=O)NCC2(c3ccccc3)CCOCC2)cc1", "hERG current change (%, negative = inhibition) at 1uM": -12}
{"smiles": "Cc1cc(/C=C2\\SC(N)=NC2=O)c(C)n1-c1ccc(F)cc1", "hERG current change (%, negative = inhibition) at 1uM": 13.2}
{"smiles": "CCCCN(C)C(=O)c1nc2ccccn2c1CN1CCN(c2cnccn2)CC1", "hERG current change (%, negative = inhibition) at 1uM": 7.66}
{"smiles": "COc1ccc(C)cc1S(=O)(=O)N1CCC(C(=O)NCCc2ccccc2)CC1", "hERG current change (%, negative = inhibition) at 1uM": 10.9}
{"smiles": "COc1ccc(CC(=O)Nc2ccccc2Oc2ccccc2)cc1", "hERG current change (%, negative = inhibition) at 1uM": 10.7}
{"smiles": "COc1ccc(C(=O)CSc2nnc(CNC(=O)c3ccc(S(=O)(=O)N(C)C)cc3)o2)cc1", "hERG current change (%, negative = inhibition) at 1uM": 7.41}
{"smiles": "CCNc1nc(OCC)nc(N2CCC(Cc3ccccc3)CC2)n1", "hERG current change (%, negative = inhibition) at 1uM": 9.21}
{"smiles": "COc1ccc(CNC(=O)CSc2nnnn2C)cc1OC", "hERG current change (%, negative = inhibition) at 1uM": 13.5}
{"smiles": "COc1ccccc1N1CCN(S(=O)(=O)c2ccc(-n3cnnn3)cc2)CC1", "hERG current change (%, negative = inhibition) at 1uM": -17.5}
{"smiles": "Cc1ccc2[nH]c(=O)c(CN(CCCN3CCOCC3)C(=O)Nc3ccc(Cl)cc3)cc2c1", "hERG current change (%, negative = inhibition) at 1uM": -13.8}
{"smiles": "COc1ccc(NC(=O)CSc2nc(=O)n(CCN3CCOCC3)c3c2CCCC3)c(OC)c1", "hERG current change (%, negative = inhibition) at 1uM": -5.23}
{"smiles": "CC(C)=CCN1CCN(Cc2c[nH]c3ccccc23)CC1CCO", "note": "(centres unmarked)", "hERG current change (%, negative = inhibition) at 1uM": 12}
{"smiles": "Fc1ccc(/C=N/Nc2nccnc2Cl)cc1", "hERG current change (%, negative = inhibition) at 1uM": 13}
{"smiles": "CC1=C(C(=O)OCCOc2ccccc2)C(c2ccc(C)o2)C2=C(CC(C)(C)CC2=O)N1", "note": "(centres unmarked)", "hERG current change (%, negative = inhibition) at 1uM": 0.634}
{"smiles": "Cc1ccc(-c2nc3ccccc3s2)cc1NC(=S)NC(=O)/C=C/c1ccco1", "hERG current change (%, negative = inhibition) at 1uM": -0.204}
{"smiles": "COc1ccc(-c2cc(C(=O)N3CC4(C)CC3CC(C)(C)C4)no2)cc1OC", "note": "(centres unmarked)", "hERG current change (%, negative = inhibition) at 1uM": -2.32}
{"smiles": "CCOc1ccc(NC(=O)CC(=O)Nc2ccc(OCC)cc2)cc1", "hERG current change (%, negative = inhibition) at 1uM": 12.4}
{"smiles": "COc1ccccc1-c1coc2c(CN(C)C)c(O)ccc2c1=O", "hERG current change (%, negative = inhibition) at 1uM": 14.7}
{"smiles": "CC(C)S(=O)(=O)c1cnc(N2CCOCC2)nc1N", "hERG current change (%, negative = inhibition) at 1uM": 13.9}
{"smiles": "Cc1ccc(-n2c(/C=C/c3ccc4c(c3)OCO4)nc3ccccc3c2=O)cc1", "hERG current change (%, negative = inhibition) at 1uM": 0.589}
{"smiles": "COc1ccc(C(=O)C2CCCN(C(=O)c3cc(C)on3)C2)cc1F", "note": "(centres unmarked)", "hERG current change (%, negative = inhibition) at 1uM": 0.713}
{"smiles": "Cc1cccc(SCC(=O)Nc2ccc3c(c2)OCCO3)c1", "hERG current change (%, negative = inhibition) at 1uM": -3.88}
{"smiles": "COC(=O)c1cn(CCOc2ccccc2F)c2ccccc12", "hERG current change (%, negative = inhibition) at 1uM": -2.35}
{"smiles": "CCOc1ccc(-c2cn3ccccc3n2)cc1", "hERG current change (%, negative = inhibition) at 1uM": -1.48}
{"smiles": "Cc1ccc(NC(=O)c2cccs2)cc1", "hERG current change (%, negative = inhibition) at 1uM": -0.304}
{"smiles": "COc1ccc([C@H]2CC(=O)C=C(c3ccc(Oc4ccccc4)cc3)C2)cc1OC", "hERG current change (%, negative = inhibition) at 1uM": 9.03}
{"smiles": "Fc1ccccc1/C=N/n1c(-c2cccnc2)n[nH]c1=S", "hERG current change (%, negative = inhibition) at 1uM": 12.9}
{"smiles": "Cl.O=C(CN1CCN(Cc2ccccc2)CC1)N1CCCc2ccccc21.O=C(O)C(=O)O", "hERG current change (%, negative = inhibition) at 1uM": 12.8}
